Data from patent US11178870B2 (priority 2017, dated 2021).

Assays:
[1] = system: Phytophthora infestans; assay type: in vivo; settings: class of control value, Table 7
[2] = system: Colletotrichum orbiculare; settings: 250 ppm spray, 2.5 ml/pot; investigated 6 to 10 days after inoculation
[3] = system: Magnaporthe grisea; assay type: in vivo; settings: class of control value, Table 7

SMILES | Test F control value (late blight on tomato) [1] | Test H control value (anthracnose on cucumber) [2] | Test A control value (blast on rice) [3]
CCn1c(-c2ccccc2C(F)(F)F)c(-n2cc(C)cn2)ccc1=O [Compound 372] | L (L shows the control value of 50% or less) | L (L shows the control value of 50% or less) | L (L shows the control value of 50% or less)
CCn1c(-c2ccc(SC)cc2F)c(-n2ncc(C)c2Cl)cc(Br)c1=O [Compound 373] | – | – | H (H shows the control value more than 50%)
